The other results are listed elsewhere or left out. Values were computed here from the reads of four pooled replicates and scatter widely.

The target of this experiment is T1, Pho4 (S. cerevisiae) (UniProt P07270).
T1 sequence: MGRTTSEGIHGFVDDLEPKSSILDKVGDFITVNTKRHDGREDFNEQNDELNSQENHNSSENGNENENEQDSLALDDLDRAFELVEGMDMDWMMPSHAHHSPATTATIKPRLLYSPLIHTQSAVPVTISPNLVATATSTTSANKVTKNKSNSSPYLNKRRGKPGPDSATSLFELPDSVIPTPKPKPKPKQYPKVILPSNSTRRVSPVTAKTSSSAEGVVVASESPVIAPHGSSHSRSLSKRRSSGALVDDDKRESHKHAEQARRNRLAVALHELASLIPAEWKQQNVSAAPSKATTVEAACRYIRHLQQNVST
The experiment can be described thus: relative binding free energy (BET-seq); higher = weaker binding. Conditions: reference: library average.
As for TTTGCCACGTGGATGT, the “relative binding free energy” value is -0.02 kcal/mol.

Turning to AAAGTCACGTGTATAT, the “relative binding free energy” value was 0.05 kcal/mol.

For TCTAACACGTGTGTGT, the “relative binding free energy” value is -0.04 kcal/mol.

AATTGCACGTGTGGAA: the “relative binding free energy” value came to 0.1 kcal/mol.

Consider GTTTACACGTGTTTAG, for which the “relative binding free energy” value was 0.19 kcal/mol.

For GGGGACACGTGTGAGC, the “relative binding free energy” value was determined as 0.25 kcal/mol.

GGGAGCACGTGCTGGC: the “relative binding free energy” value is -0.04 kcal/mol.

On to TGTAACACGTGATATG, for which the “relative binding free energy” value was -0.04 kcal/mol.

With TGCGGCACGTGGATAG, the “relative binding free energy” value was -0.19 kcal/mol.

Turning to GATAGCACGTGATTGG, the “relative binding free energy” value was found to be 0.16 kcal/mol.

Take AGTATCACGTGTTTCG: the “relative binding free energy” value stood at 0.27 kcal/mol.

Take TTGTTCACGTGCGGTA: the “relative binding free energy” value worked out at 0.18 kcal/mol.

As for AGGGGCACGTGTGTGC, the “relative binding free energy” value is -0.15 kcal/mol.

Turning to TACTGCACGTGGGGGA, the “relative binding free energy” value was -0.11 kcal/mol.

On to TGCATCACGTGGTATG, for which the “relative binding free energy” value was determined as 0.06 kcal/mol.

Consider AAGACCACGTGTGGGT, for which the “relative binding free energy” value was -0.08 kcal/mol.

With ATGTACACGTGGCAGT, the “relative binding free energy” value worked out at 0.11 kcal/mol.

For GAGCGCACGTGGGGCA, the “relative binding free energy” value is -0.17 kcal/mol.

With GGGTGCACGTGGAATG, the “relative binding free energy” value came out at 0.08 kcal/mol.

Consider GAACGCACGTGAGGGG, for which the “relative binding free energy” value came to 0.18 kcal/mol.

Consider AGGATCACGTGGTGGG, for which the “relative binding free energy” value stood at 0.17 kcal/mol.

In the case of GGGGCCACGTGGTGTG, the “relative binding free energy” value was -0.07 kcal/mol.

On to TTCATCACGTGAATTG, for which the “relative binding free energy” value amounted to 0.35 kcal/mol.

Turning to ATGGACACGTGGTAGA, the “relative binding free energy” value amounted to 0.15 kcal/mol.

In the case of CGATTCACGTGTGGCG, the “relative binding free energy” value came out at 0.2 kcal/mol.

As for GTTCTCACGTGTTGAT, the “relative binding free energy” value turned out to be 0.23 kcal/mol.

In the case of TTGAGCACGTGAGAGT, the “relative binding free energy” value was 0.12 kcal/mol.

Regarding GGTAGCACGTGTGTTG, the “relative binding free energy” value is -0.08 kcal/mol.

In the case of GTCAACACGTGGGGTG, the “relative binding free energy” value amounted to 0.04 kcal/mol.

CTGTTCACGTGGGGCT: the “relative binding free energy” value came to 0.04 kcal/mol.

In the case of ACGTGCACGTGGGGGC, the “relative binding free energy” value was -0.26 kcal/mol.

For GATGGCACGTGGTAGC, the “relative binding free energy” value was -0.09 kcal/mol.

On to CTGTCCACGTGAGGGG, for which the “relative binding free energy” value was 0.09 kcal/mol.

For GGAGACACGTGCGGCG, the “relative binding free energy” value amounted to 0.19 kcal/mol.

For the sequence TGGGGCACGTGTATAC, the “relative binding free energy” value was -0.21 kcal/mol.

As for GGCTTCACGTGAATGG, the “relative binding free energy” value was 0.45 kcal/mol.

In the case of TGCTTCACGTGGATGG, the “relative binding free energy” value stood at 0.15 kcal/mol.

Turning to GTGTCCACGTGGGTCG, the “relative binding free energy” value was determined as 0.08 kcal/mol.

In the case of ATGGGCACGTGTTGTT, the “relative binding free energy” value is -0.08 kcal/mol.

On to TATGGCACGTGTGGCG, for which the “relative binding free energy” value is -0.01 kcal/mol.

For AGGGACACGTGCTAGG, the “relative binding free energy” value was -0.03 kcal/mol.

For the sequence ATTGTCACGTGTTAAC, the “relative binding free energy” value stood at 0.19 kcal/mol.

As to AATTTCACGTGTAGGA, the “relative binding free energy” value worked out at 0.26 kcal/mol.

CGTGGCACGTGGTCGA: the “relative binding free energy” value is -0.18 kcal/mol.

On to GGAGTCACGTGTCTGG, for which the “relative binding free energy” value was found to be 0.25 kcal/mol.

Regarding GAGTCCACGTGTGAGT, the “relative binding free energy” value is 0.33 kcal/mol.

For the sequence AGGTTCACGTGGGCAA, the “relative binding free energy” value stood at 0.1 kcal/mol.

For TAGGGCACGTGTCGTA, the “relative binding free energy” value is -0.06 kcal/mol.

Regarding GGGGGCACGTGCCATT, the “relative binding free energy” value is -0.09 kcal/mol.

As for GTTGACACGTGGTAAT, the “relative binding free energy” value was 0 kcal/mol.

On to AAGAGCACGTGCGGGG, for which the “relative binding free energy” value is -0.15 kcal/mol.

For the sequence ATGATCACGTGGGAAA, the “relative binding free energy” value came to 0.26 kcal/mol.

For ATGTACACGTGCTGGT, the “relative binding free energy” value was -0.01 kcal/mol.

Turning to TAGTGCACGTGCTTGA, the “relative binding free energy” value came out at 0.04 kcal/mol.

On to GGCATCACGTGGGTTT, for which the “relative binding free energy” value was 0.19 kcal/mol.

Take GTTCGCACGTGTGGAA: the “relative binding free energy” value was 0.18 kcal/mol.

As for GGAGGCACGTGTATTA, the “relative binding free energy” value is -0.1 kcal/mol.

The values are drawn from the BET-seq Pho4 binding data (Le et al. 2018).
